Some of the results follow.

For the assay, the target named is T1, OsWOX13 (Oryza sativa, UniProt Q5QMM3 1-267).
T1 sequence: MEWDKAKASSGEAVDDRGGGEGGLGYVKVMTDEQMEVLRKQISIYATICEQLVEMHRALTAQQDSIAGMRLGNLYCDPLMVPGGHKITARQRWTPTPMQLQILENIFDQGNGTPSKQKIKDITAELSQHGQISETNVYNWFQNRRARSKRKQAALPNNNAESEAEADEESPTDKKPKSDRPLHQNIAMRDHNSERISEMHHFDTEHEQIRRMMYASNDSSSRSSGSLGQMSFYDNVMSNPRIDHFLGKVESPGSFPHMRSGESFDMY
In words: protein-binding microarray (RPBM); PBS, 2% BSA, 51.3 ng/ul salmon testes DNA, 50 uM zinc acetate, 200 nM TF, 25 C, 1 h; high values mean tight binding. To be noted: protein: recombinant; tags: N-terminal polyhistidine and DsRed monomer fusion (pET32a); label: CyDye5-dUTP incorporated in the synthesized complementary strand; 3' TTTTT single-stranded linker to array surface; dsDNA, one strand shown. In a few lines:
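Polyhistidine-tagged DsRed fusions of transcription factors, joined at the N-terminus, were expressed in E. coli BL21-CodonPlus and isolated on Ni–NTA. They were incubated at 200 nM for 1 h at 25 °C on a custom Agilent array, double-stranded and BSA-blocked, in PBS with 2% BSA, salmon testes DNA and 50 µM zinc acetate. The binding signal is per-feature fluorescence intensity (arbitrary units) read on an Axon 4000B scanner after washing.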
On to “GTGAGATAAATTAATGGTCAAGTTTGTGTCCAGAGTTGATCGGAGTCACCTAGTGCAG”, for which the binding signal was 5470 fluorescence intensity (a.u.).

On to “GTCTAATAACAAAACAAATTACAGAATCCACCTATAAACCCGGAGTCACCTAGTGCAG”, for which the binding signal was 5610 fluorescence intensity (a.u.).

Regarding “TCCTAATCATAGCTTAAATCAGCGAGATTAGTCTTATTGTCGGAGTCACCTAGTGCAG”, the binding signal was 19200 fluorescence intensity (a.u.).

As for “ATTAATTAAGTAGAGTCAATTCTCAATTCTTTACAGCAGTCGGAGTCACCTAGTGCAG”, the binding signal is 20700 fluorescence intensity (a.u.).

Consider “ATAATTAAAAGCTTAATCACGTTTAGTTTTCACAGGCGCGCGGAGTCACCTAGTGCAG”, for which the binding signal is 10400 fluorescence intensity (a.u.).

In the case of “CTGATTGATTTAGCGGCTCAACATATATACCAAGGCGGCGCGGAGTCACCTAGTGCAG”, the binding signal is 61100 fluorescence intensity (a.u.).

“GCAATTAATGACCTATAGATAGTAGCATTCAATTTCCACTCGGAGTCACCTAGTGCAG”: the binding signal was 7190 fluorescence intensity (a.u.).

As for “CCAATTGATTTGGATAACCAAACTCGTTACTCACTTCAACCGGAGTCACCTAGTGCAG”, the binding signal was 37800 fluorescence intensity (a.u.).

In the case of “CCGAAATTTTAGAATTAAATGATGAAACAAAATGTTATTACGGAGTCACCTAGTGCAG”, the binding signal was 13500 fluorescence intensity (a.u.).

On to “CAAACAATCAGATGCGAATTACAGCTTGGAAAGAGTACAGCGGAGTCACCTAGTGCAG”, for which the binding signal was 3800 fluorescence intensity (a.u.).

Take “AGTGATTAATTCATTCCAAAAGACAGTAGCGACATCTATTCGGAGTCACCTAGTGCAG”: the binding signal is 20300 fluorescence intensity (a.u.).

Take “AATGGAAATATCTGATGATTTACGTCAGCGAAATTGTTGTCGGAGTCACCTAGTGCAG”: the binding signal is 3520 fluorescence intensity (a.u.).

As to “ATTATAAAATTTGTCATTGATGATAAGCACAAGGTCAATTCGGAGTCACCTAGTGCAG”, the binding signal is 4540 fluorescence intensity (a.u.).

“CTATATAGAAATTGATGGTTAAATATTAAAATGTTTGATTCGGAGTCACCTAGTGCAG”: the binding signal is 8060 fluorescence intensity (a.u.).

On to “AGTGACGCCCTCTTGATTAGCGAATTCGGCGGAGCTTTTCCGGAGTCACCTAGTGCAG”, for which the binding signal is 10700 fluorescence intensity (a.u.).

On to “AATAATTTTGTGTTCGCTATTGGAGGGTACACTAAGTTGACGGAGTCACCTAGTGCAG”, for which the binding signal was 9680 fluorescence intensity (a.u.).

Take “TTTCAATCACCTCCGCTTCCTCCGCCGCCTCGGCGCGAAGCGGAGTCACCTAGTGCAG”: the binding signal was 5430 fluorescence intensity (a.u.).

Regarding “CTCCAATTCATCTATAATCAATCTAATAGCCAATTCATACCGGAGTCACCTAGTGCAG”, the binding signal is 5900 fluorescence intensity (a.u.).

“CTTCTACCTAATTTATATAATCTGCTAGTACTATACTTACCGGAGTCACCTAGTGCAG”: the binding signal was 6770 fluorescence intensity (a.u.).

As for “TGTGATTTATTTCTAAAATAATTTCTTGGCACGGTTCTTTCGGAGTCACCTAGTGCAG”, the binding signal was 30000 fluorescence intensity (a.u.).

Turning to “ATATATAATCAATCCTGGCCAAAACAATCGGATTAATCTGCGGAGTCACCTAGTGCAG”, the binding signal is 6420 fluorescence intensity (a.u.).

Consider “TGGGTTGAACTTTGGGTTAATTGAAGTGTATAGCTTAATTCGGAGTCACCTAGTGCAG”, for which the binding signal is 4440 fluorescence intensity (a.u.).

Turning to “TTCTGTCAATTAGGTGGGTGACATGTGGATCCCACGATATCGGAGTCACCTAGTGCAG”, the binding signal is 13200 fluorescence intensity (a.u.).

On to “GAACAAATTGAAGAAGTAGAGATGCTGTTATTAAATATCGCGGAGTCACCTAGTGCAG”, for which the binding signal was 31300 fluorescence intensity (a.u.).

With “TGTATAATATGTTAATTGGACTTTTCACTATAGTTATGATCGGAGTCACCTAGTGCAG”, the binding signal was 14000 fluorescence intensity (a.u.).

For the sequence “GTCAAGTAACTGAACATTTTAATTGCTGCCGATTATTACCCGGAGTCACCTAGTGCAG”, the binding signal is 13400 fluorescence intensity (a.u.).

Take “CATCATGCATAATTATGGCCTAATAAATCAAGCAGAAAACCGGAGTCACCTAGTGCAG”: the binding signal is 9570 fluorescence intensity (a.u.).

Regarding “CATGATTAGCCTATGTGATACTACAATAAACATTCTCTAACGGAGTCACCTAGTGCAG”, the binding signal is 20800 fluorescence intensity (a.u.).

Turning to “CCCTGGTATGCAAATCAATTAAAATTCTTTGGCCACTGTACGGAGTCACCTAGTGCAG”, the binding signal was 5500 fluorescence intensity (a.u.).

Turning to “ACCACTATTGATTGAATTAGTGTTCATTGGTGAAGTTGTTCGGAGTCACCTAGTGCAG”, the binding signal was 46700 fluorescence intensity (a.u.).

Turning to “GTAATGACTAATTAACAGTGGACCAAATTAAACCGTGTTCCGGAGTCACCTAGTGCAG”, the binding signal is 29900 fluorescence intensity (a.u.).

“TTCTTTTCATCAATTTAGCTTCAACCCTCTGCAAACCCTGCGGAGTCACCTAGTGCAG”: the binding signal is 3960 fluorescence intensity (a.u.).

For the sequence “ATTAATCTATAATTAGAGGCGCCTGTGGTGACTTCGTCAACGGAGTCACCTAGTGCAG”, the binding signal is 3720 fluorescence intensity (a.u.).

For the sequence “CTTAATTGCTCAGGGATATCTGTTCTTTGATTAATCCTGGCGGAGTCACCTAGTGCAG”, the binding signal is 30600 fluorescence intensity (a.u.).

For the sequence “AGAATAATTATCATCCACACCACTAAAATCCATCACCTCCCGGAGTCACCTAGTGCAG”, the binding signal is 26200 fluorescence intensity (a.u.).

As to “TTAGATTTAAACTTAAGACATTGATGAACTAAGGAATTTTCGGAGTCACCTAGTGCAG”, the binding signal is 3570 fluorescence intensity (a.u.).

On to “ACAATCTTATAGCTAATTTATTATATATGTTAGCTTTAAGCGGAGTCACCTAGTGCAG”, for which the binding signal was 4320 fluorescence intensity (a.u.).

As for “AAGACTCCTTTGACTTAAATTACTGGGCGGATTAGGATTACGGAGTCACCTAGTGCAG”, the binding signal was 3200 fluorescence intensity (a.u.).

Consider “GTTGATTTGGTCATCATCCAACGCCGGCCAGGCTCGCCAGCGGAGTCACCTAGTGCAG”, for which the binding signal is 30900 fluorescence intensity (a.u.).

As to “TATAAATTTATTTAACTTAAGGAAATATTAACAAGTACAACGGAGTCACCTAGTGCAG”, the binding signal was 9220 fluorescence intensity (a.u.).

Take “CACGATGGTAATTAACCACCCCTTGGCGCTTTTCGGCCCCCGGAGTCACCTAGTGCAG”: the binding signal is 7630 fluorescence intensity (a.u.).

On to “GCTTGGATTGGTCTGAACATCGGTGACAGTGGAGAAGACGCGGAGTCACCTAGTGCAG”, for which the binding signal is 3780 fluorescence intensity (a.u.).

These data come from PMC7819943, “Rice protein-binding microarrays: a tool to detect cis-acting elements near promoter regions in rice”.
